# Some of the results follow. The full chains were built here from the parent and the listed change. Values near 0.05 are background.
# B1: TEV protease; numbered along this chain (parent)
# chain: MGESLFKGPRDYNPISSSICHLTNESDGHTTSLYGIGFGPFIITNKHLFRRNNGTLVVQSLHGVFKVKDTTTLQQHLVDGRDMIIIRMPKDFPPFPQKLKFREPQREERICLVTTNFQTKSMSSMVSDTSCTFPSGDGIFWKHWIQTKDGQCGSPLVSTRDGFIVGIHSASNFTNTNNYFTSVPKNFMELLTNQEAQQWVSGWRLNADSVLWGGHKVFMVKPEEPFQPVKEATQL
# Variants of: B1
# Experiment: raw area under fraction-flipped curve 0-4 h after induction (AUC4h, not background-subtracted), DNA-recorder readout of cleavage of the substrate (dimensionless); higher = more cleavage of the substrate by the protease variant
# Settings: temperature: 34 °C; time window: 0-4 h after rhamnose induction
# Method: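 In vivo DNA recorder in E. coli TOP10(DE3) ΔrhaA at 34 °C. Each TEVp single-site mutant (parent TEVp 0) is paired with a single-site variant of the 7-mer TEVs (canonical ENLYFQ|S). The substrate sits between flexible linkers in a Bxb1-sfGFP-TEVs-SsrA fusion, so cleavage stabilises Bxb1 and speeds flipping of a recombination array, read by NGS. The value is the raw area under the fraction-flipped curve over 0-4 h after rhamnose induction (AUC4h), with ≥20 reads per time point. It is not background-subtracted; inactive controls average about 0.047.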
# 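Note: Bxb1 expression induced with 0.2% (w/v) L-rhamnose at OD600 near 0.5, cultures sampled hourly, flipped fraction per protease–substrate barcode pair counted by paired-end Illumina sequencing.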
Variant,area with substrate ENAYFQS,area with substrate ENDYFQS,area with substrate ENHYFQS,area with substrate ENKYFQS,area with substrate ENNYFQS,area with substrate ENRYFQS,area with substrate ENVYFQS,area with substrate ENEYFQS,area with substrate ENFYFQS,area with substrate ENIYFQS,area with substrate ENPYFQS,area with substrate ENQYFQS,area with substrate ENSYFQS,area with substrate ENTYFQS,area with substrate ENYYFQS,area with substrate ENCYFQS,area with substrate ENGYFQS,area with substrate ENMYFQS,area with substrate ENWYFQS
V217F,0.0376,0.0622,0.0347,0.0649,0.069,0.0638,0.0614,–,–,–,–,–,–,–,–,–,–,–,–
V217T,0.0554,–,0.0594,0.0703,0.0823,–,0.0421,0.0607,0.0627,0.076,0.0636,0.0576,0.0488,0.0502,0.0644,–,–,–,–
V217K,0.0516,0.0659,–,–,–,–,0.0539,0.0524,0.0639,0.0531,–,–,–,0.0592,0.054,0.0383,0.0531,–,–
K230Y,0.0467,–,–,0.0767,0.0618,0.0538,0.0763,–,0.0527,–,0.0699,0.0567,0.0536,–,–,0.0584,–,0.068,–
K230Q,0.0813,0.0666,–,–,–,0.073,0.0665,–,0.0723,–,–,0.0648,0.0669,0.0532,0.0899,0.0758,0.0497,0.0767,0.0011
R106V,–,0.0622,0.0727,0.0624,0.0634,0.0584,0.0889,0.0787,0.0588,0.133,–,0.0692,–,0.0692,–,0.0745,0.0745,–,0.0546
P93T,–,–,–,–,0.0545,0.0512,–,0.0799,0.0379,–,0.0597,–,–,–,–,0.0614,0.062,–,0.0548
G214R,0.0599,–,0.054,–,0.0582,0.0471,0.0574,0.0588,0.0607,0.0786,0.0519,0.0583,0.0651,0.0667,–,–,–,–,0.0528
G214P,0.0518,0.0548,–,0.0629,0.0589,–,–,0.0356,–,–,0.0542,0.0616,0.0746,–,–,–,0.049,–,–
R81W,–,0.0724,–,0.0388,0.063,0.0603,0.0637,–,0.0605,0.0618,–,0.0545,0.0534,0.0542,0.0602,0.062,0.0616,0.0674,–
I19A,–,0.0366,0.047,0.0581,0.0481,–,0.046,0.0589,–,0.0774,–,0.0605,–,–,–,0.0681,–,–,0.0554
G2R,–,0.0318,–,–,–,–,0.0698,0.0614,–,0.144,–,0.0635,–,0.0539,–,0.076,–,–,–
H215P,0.0522,0.0701,0.0549,0.0494,0.033,0.0344,0.0551,–,0.0494,0.0582,–,0.0514,0.0641,0.0035,0.0666,0.0608,0.0588,0.0352,–
F95D,–,–,–,–,0.0453,–,–,0.0373,0.0495,–,–,0.0436,0.0382,0.0274,0.0477,0.0559,–,–,–
Q75V,–,0.0564,–,0.0629,0.0746,0.0449,–,0.0671,0.0524,–,–,0.0601,–,0.0384,0.0565,0.0545,0.0699,0.0675,–
R102P,–,0.0391,–,–,0.0655,0.0539,0.062,0.0464,–,0.0454,–,0.0275,0.036,–,–,0.0426,–,–,0.0597

Variant,area with substrate ENAYFQS,area with substrate ENDYFQS,area with substrate ENHYFQS,area with substrate ENKYFQS,area with substrate ENNYFQS,area with substrate ENRYFQS,area with substrate ENVYFQS,area with substrate ENEYFQS,area with substrate ENFYFQS,area with substrate ENIYFQS,area with substrate ENPYFQS,area with substrate ENQYFQS,area with substrate ENSYFQS,area with substrate ENTYFQS,area with substrate ENYYFQS,area with substrate ENCYFQS,area with substrate ENGYFQS,area with substrate ENMYFQS,area with substrate ENWYFQS
T114I,–,–,0.0787,0.0735,–,0.0663,0.025,–,0.0571,–,–,0.06,0.066,0.0633,–,0.0745,–,0.0732,–
E224G,0.0402,0.0635,0.064,0.06,0.0657,–,0.0969,0.0779,0.0455,0.0965,–,0.0844,–,0.0632,–,–,–,–,–
E3L,–,0.0642,–,0.0679,0.0693,0.0783,–,0.0661,0.0331,–,0.0734,0.0497,0.0944,0.069,–,0.0606,–,–,–
Q227C,0.0481,0.0554,–,–,–,0.0601,0.0717,0.0618,0.0633,0.113,0.0709,0.0601,0.0492,0.054,–,–,0.038,0.0815,–
K66G,–,–,–,0.0584,0.0634,0.0563,–,0.0481,0.0608,0.1,–,0.048,0.04,0.0473,–,0.0671,–,0.0713,0.0466
V229A,0.0682,–,–,0.0604,–,0.0645,–,0.0561,–,–,–,0.0657,0.055,–,–,0.0651,–,–,–
V229S,0.0975,–,–,–,–,–,0.0871,–,–,0.109,0.0541,0.0693,–,0.064,–,0.07,0.0748,–,–
P228L,0.0469,0.0466,–,–,0.0668,–,0.0633,0.0758,0.0431,0.117,–,0.0524,0.051,–,–,–,–,–,0.0525
P228M,0.0559,0.0045,0.0617,–,0.061,0.0571,0.086,0.0586,0.0615,0.113,–,–,–,–,–,0.0763,–,–,–
P228K,0.0337,0.0643,–,0.0446,0.056,–,0.0946,–,–,0.0963,0.0674,0.061,0.052,0.0561,–,0.0684,0.0805,–,–
E223W,0.0586,0.0687,0.0524,0.049,0.0609,0.0542,0.0606,0.0561,0.0515,–,–,0.0543,0.0598,0.07,0.0576,0.0567,0.0666,–,0.0666
E223S,0.0643,–,0.0606,0.065,0.0593,0.0482,–,0.0624,0.0372,0.101,–,0.0635,0.0525,0.056,–,–,–,–,0.0706
G213V,0.0602,–,–,0.0598,–,–,0.0636,0.0506,–,–,–,0.0484,–,0.0675,–,0.0651,–,–,–
E231F,0.0561,0.0676,0.0642,0.0669,–,0.0548,0.098,0.0629,–,–,0.0631,–,0.0616,–,–,0.0652,–,–,0.0522
T233L,0.0651,0.0498,0.0487,–,0.0626,0.0534,–,0.0426,0.0518,–,0.0676,0.0693,0.0503,–,0.065,0.0616,–,0.084,0.033
V58N,–,–,–,–,–,0.052,0.037,–,–,–,–,–,–,–,–,0.0562,–,–,–

# From the supplement of paper PMC12217912
